PubChem BioAssay AID1745845 (National Center for Advancing Translational Sciences (NCATS), 2022)
In all, about 360,000 compounds went through this assay and about 2,600 (0.72%) were called active. Inconclusive means that the source gave no clear call. Such entries were picked first, then a sample of the others. The call rests on the fitted dose curve; in most records, active means well fitted inhibition curve with a large enough effect; inconclusive means small, poorly fitted or top-dose-only effect; inactive means no such curve, though single readings can be large or run the other way. A potency beside an inconclusive call is a rough fit, not a confirmed value.

Assay: Primary qHTS for Inhibitors of ATXN expression; further: nearly all actives have a fitted effect of over 55% in size
Conditions: HEK-293 ATXN2-luciferase reporter, luminescence, 24 h; activity change, negative = inhibition: at 57 µM (top of the series)
Procedure, shortened: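 qHTS (up to 57 uM final) was run with 24 h compound exposure of reporter cells at 37 °C. Each well was multiplexed: SteadyGlo luminescence measured ATXN2-luciferase expression after a fluorogenic Gly-Phe-AFC viability readout (25 uM final).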
On the % scale 0 is the no-effect control and ±100 the full control effect; potency means the concentration at half of the fitted maximal effect; tags describe the fitted curve by direction and shape.

| Structure (SMILES) | Potency | activity change, negative = inhibition |
| --- | --- | --- |
| Cc1cc(N(CCCl)CCCl)ccc1C=NNC(=O)c1cccnc1 | active: 1.78 µM |  |
| CC(C)CNC(=O)c1c(N)n(Cc2ccco2)c2nc3ccccc3nc12 | inconclusive: 20 µM [inhibitor, partial curve, poor fit] |  |
| COc1ccc(-n2nnnc2C(c2ccccc2OC(F)(F)F)N2CCC(n3c(=O)[nH]c4ccccc43)CC2)cc1 (stereo not given) | inconclusive: 39.8 µM [inhibitor, single point] |  |
| NC(Cc1ccc(F)cc1)c1csc(Nc2ncccn2)n1 (stereo not given) | inconclusive: 12.6 µM [inhibitor, partial curve] |  |
| Fc1ccc(CNCCc2c[nH]c3ccccc23)cc1 | inconclusive: 7.94 µM [inhibitor, partial curve, poor fit] |  |
| Cn1c(O)c(/C=C2/C=CC=N2)c(=O)[nH]c1=O |  | inactive: 6.49% |
| CN(Cc1cccc(-c2ccncc2)c1)C(=O)Oc1ccc([N+](=O)[O-])cc1 | active: 25.1 µM |  |
| CCOc1ccc(N2C(=O)/C(=C\c3cccs3)C(=O)NC2=S)cc1 | active: 31.6 µM |  |
| O=C1CC(c2c(F)cccc2Cl)c2c(c3ccccc3oc2=O)O1 (stereo not given) |  | inactive: -9.06% |
| O=c1[nH]c2ccc(Cl)cc2c(N[C@@H]2CN3CCC2CC3)c1-c1nc2ccccc2[nH]1 | active: 0.0685 µM |  |
| Fc1ccc(C[n+]2c(-c3ccccc3)cc(-c3ccccc3)cc2-c2ccccc2)cc1 | inconclusive: 3.16 µM [inhibitor, partial curve] |  |
| COc1ccc(CCC(C)NCCc2ccccc2)cc1 (stereo not given) |  | inactive: -24.7% |
| O=C1NC(=O)N(CCc2ccc(F)cc2)C(=O)/C1=C/C=C/c1ccccc1 | active: 10 µM |  |
| CCOc1ccc(-c2c(C)n(-c3ccc(OCC)cc3)c3[n+]2CCCCC3)cc1 | inconclusive: 3.55 µM [inhibitor, full curve] |  |
| O=C1NC(=O)N(Cc2ccc(F)cc2)C(=O)/C1=C\C=C\c1ccco1 | inconclusive: 39.8 µM [inhibitor, single point] |  |
| CC(=O)[O][Hg][c]1ccccc1 | active: 4.47 µM |  |
| Cc1cc(N2CCN(C)CC2)nc2ccccc12 | inconclusive: 31.6 µM [inhibitor, single point] |  |
| CCOC(=O)[C@]12Cc3cc(C)ccc3[C@H]1N(C(C)C)C(=O)c1ccccc12 | inconclusive: 14.1 µM [inhibitor, partial curve, poor fit] |  |
| Brc1ccc2c(c1)C(OC1CN3CCC1CC3)c1ccccc1CS2 (stereo not given) | inconclusive: 39.8 µM [inhibitor, single point] |  |
| COC(COC(N)=O)C1=C(N2CC2)C(=O)C(C)=C(N2CC2)C1=O (stereo not given) | active: 3.55 µM |  |
| CCOC(=O)C12C(=O)OCC1C2c1ccccc1 (stereo not given) |  | inactive: 4.14% |
| CC(C)c1ccc(N2C(=O)NC(=O)/C(=C/C=C/c3ccco3)C2=O)cc1 | active: 28.2 µM |  |
| CC(CN(C)C1CCN(C)CC1)c1ccccc1 (stereo not given) |  | inactive: -30% |

| Structure (SMILES) | Potency | activity change, negative = inhibition |
| --- | --- | --- |
| COc1cccc2c1cc([N+](=O)[O-])c1c(C(=O)O)cc3c(c12)OCO3 | inconclusive: 11.2 µM [inhibitor, partial curve] |  |
| CCCCCCCCn1sccc1=O | active: 25.1 µM |  |
| CCCCCCCCCCCC[N+](C)(C)CCOc1ccccc1 | active: 31.6 µM |  |
| COC1C(O)C(C)OC(OC2C(Oc3cccc4c(O)c5c(=O)oc6ccc(C)c7c(=O)oc(c34)c5c67)OC(C)C(O)C2O)C1O (stereo not given) | active: 10 µM |  |
| C=C1C(O)[C@@H]2O[C@]3(CC[C@H](/C=C/C(C)[C@@H]4CC(C)=CC5(O[C@H](C[C@@](C)(O)C(=O)O)CCC5O)O4)O3)CC[C@H]2O[C@@H]1C(O)CC(C)[C@H]1OC2(CCCCO2)CCC1C (stereo not given in full) | active: 0.316 µM |  |
| Cc1onc(-c2c(Cl)cccc2Cl)c1C(=O)Nc1ccc2c(C(F)(F)F)cc(=O)oc2c1 | inconclusive: 6.7 µM [inhibitor, single point] |  |
| O=C(Nc1ccccc1-c1ccc(Cl)cc1)c1cccnc1Cl | inconclusive: 50.1 µM [inhibitor, partial curve, poor fit] |  |
| CC1COC2(c3ccccc3Cl)c3cc(Cl)ccc3NC(=O)CN12 (stereo not given) |  | inactive: 3.89% |
| COC(=O)C1=C(c2ccc(Cl)c(C(F)(F)F)c2)C[C@@H]2CC[C@H]1N2C(=O)NCCOc1ccc(OC)cc1 | inconclusive: 35.5 µM [inhibitor, single point] |  |
| O=C1NC(=O)C(=Cc2ccc(SC3CCCCC3)o2)C(=O)N1 | active: 17.8 µM |  |
| CCCCCSc1cc(OC)c(CCNC)cc1OC |  | inactive: -12.1% |
| C[C@]12CC[C@@H](O)C[C@H]1CC[C@@H]1[C@@H]2CC[C@]2(C)C(=O)CC[C@@H]12 | inconclusive: 39.8 µM [inhibitor, partial curve, poor fit] |  |
| CN(Cc1cccc(-c2ccncc2)c1)C(=O)Oc1ccccc1Cc1ccccc1 | inconclusive: 8.91 µM [inhibitor, partial curve, poor fit] |  |
| COC(=O)C1=C(C(=O)OC)SC2(S1)C(C(=O)OC)=C(C(=O)OC)Sc1c2ssc1=O | active: 17.8 µM |  |
| FC(F)(F)c1ccc2c(c1)N(CCCN1CCN(CCCl)CC1)c1ccccc1S2 | inconclusive: 12.6 µM [inhibitor, partial curve] |  |
| COc1ccc(/C=C/C(=O)c2c(O)n(CCC3=CCCCC3)c(=O)[nH]c2=O)cc1 | inconclusive: 31.6 µM [inhibitor, single point] |  |
| O=C(Nc1ccc(Br)cc1)c1cc(Br)cc(Br)c1O | inconclusive: 44.7 µM [inhibitor, single point] |  |
| c1ccc2c(CN3CCNCC3)cccc2c1 | inconclusive: 19.3 µM [inhibitor, partial curve] |  |
| Cc1cccc(OP(=O)(Nc2ccc(F)cc2)Oc2cccc(C)c2)c1 |  | inactive: -24.2% |
| CC(C)(C)n1nnnc1C(CCc1ccccc1)N1CCC(n2c(=O)[nH]c3ccccc32)CC1 (stereo not given) | inconclusive: 31.6 µM [inhibitor, partial curve, poor fit] |  |
| COC(=O)C1=C(C)NC(=S)NC1c1ccc(N(CCCl)CCCl)cc1Cl (stereo not given) |  | inactive: 0% |
| Cc1ccc(NC(=O)N(Cc2ccc3c(c2)OCO3)C2CCN(Cc3ccccc3)CC2)cc1F | inconclusive: 28.2 µM [inhibitor, partial curve] |  |
